Measured values taken from the supplement of paper PMC11876631.
Numbering of substitutions follows the chain as printed. Names and notes keep the numbering of the source. ± gives the standard deviation of the averaged measurements. Laboratory Escherichia coli strains with one amino-acid change in an essential protein, pooled on minimal glucose agar with carbenicillin or gentamicin at twice the control MIC (plus kanamycin and chloramphenicol for the plasmids), 48 h. Fold change of barcode share against drug-free plates; higher = less susceptible. Active = above 20 in both replicates (the paper's putatively resistant). '<' = one read or none on drug, '>' = one read or none on a drug-free plate. Shares are relative, so most strains fall below 1 when a few take over. Listed are strains with at least 15 reads on both drug-free plates, and hits; most hits rest on fewer reference reads. Replicate rank correlation about 0.5. Edits are read from barcodes.

B1: argA M173W (protein)
chain: MVKERKTELVEGFRHSVPYINTHRGKTFVIMLGGEAIEHENFSSIVNDIGLLHSLGIRLVVVYGARPQIDANLAAHHHEPLYHKNIRVTDAKTLELVKQAAGTLQLDITARLSMSLNNTPLQGAHINVVSGNFIIAQPLGVDDGVDYCHSGRIRRIDEDAIHRQLDSGAIVLWGPVAVSVTGESFNLTSEEIATQLAIKLKAEKMIGFCSSQGVTNDDGDIVSELFPNEAQARVEAQEEKGDYNSGTVRFLRGAVKACRSGVRRCHLISYQEDGALLQELFSRDGIGTQIVMESAEQIRRATINDIGGILELIRPLEQQGILVRRSREQLEMEIDKFTIIQRDNTTIACAALYPFPEEKIGEMACVAVHPDYRSSSRGEVLLERIAAQAKQSGLSKLFVLTTRSIHWFQERGFTPVDIDLLPESKKQLYNYQRKSKVLMADLG
B2: argA M173P (protein)
chain: B1 chain with W173P
B3: argA M173Q (protein)
chain: B1 chain with W173Q
B4: argA V399A (protein)
chain: B1 chain with W173M, V399A
B5: argA M173D (protein)
chain: B1 chain with W173D
B6: fabI L10A (protein)
chain: MGFLSGKRIAVTGVASKLSIAYGIAQAMHREGAELAFTYQNDKLKGRVEEFAAQLGSDIVLQCDVAEDASIDTMFAELGKVWPKFDGFVHSIGFAPGDQLDGDYVNAVTREGFKIAHDISSYSFVAMAKACRSMLNPGSALLTLSYLGAERAIPNYNVMGLAKASLEANVRYMANAMGPEGVRVNAISAGPIRTLAASGIKDFRKMLAHCEAVTPIRRTVTIEDVGNSAAFLCSDLSAGISGEVVHVDGGFSIAAMNELELK
B7: fabI F113W (protein)
chain: B6 chain with A10L, F113W
B8: fabI V184A (protein)
chain: B6 chain with A10L, V184A
B9: fabI V184D (protein)
chain: B6 chain with A10L, V184D
B10: fabI F113A (protein)
chain: B6 chain with A10L, F113A
B11: fabI I24Q (protein)
chain: B6 chain with A10L, I24Q
B12: fabI V108A (protein)
chain: B6 chain with A10L, V108A
B13: fabI V105P (protein)
chain: B6 chain with A10L, V105P
B14: fabI I24D (protein)
chain: B6 chain with A10L, I24D
B15: fabI I24A (protein)
chain: B6 chain with A10L, I24A

Target: Escherichia coli (laboratory strain)
Assay: barcode share on antibiotic plates over drug-free plates; higher = less susceptible
Settings: antibiotic: carbenicillin; 2× MIC (3.1 µg/mL)
Method: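 A pool of E. coli strains, each edited to carry one amino-acid change in an essential protein, was grown for 48 h on minimal glucose agar with or without antibiotic; strain barcodes were sequenced; mean of two replicates.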

Row | Protein | fold change of barcode share
1 | B1 | > 23.8 [active]
2 | B2 | 0.309 ± 0.028
3 | B3 | 0.355 ± 0.0081
4 | B4 | 0.476 ± 0.16
5 | B5 | 0.83 ± 0.33
6 | B6 | 0.434 ± 0.3
7 | B7 | 0.451 ± 0.032
8 | B8 | 0.284 ± 0.068
9 | B9 | 0.416 ± 0.18
10 | B10 | 0.399 ± 0.17
11 | B11 | 9.09 ± 0.47
12 | B12 | 0.48 ± 0.0095
13 | B13 | 0.142 ± 0.063
14 | B14 | 0.255 ± 0.16
15 | B15 | 0.37 ± 0.1

Same assay, conditions: antibiotic: gentamicin; 2× MIC (MIC 0.45 µg/mL)

Row | Protein | fold change of barcode share
16 | B3 | 0.0112 ± 0.012
17 | B4 | 0.0194 ± 0.0071
18 | B7 | 0.0261 ± 0.016
19 | B9 | 0.0253 ± 0.0048
20 | B10 | < 0.00927
21 | B12 | < 0.00986
22 | B13 | < 0.0194
23 | B15 | 0.00375 ± 0.0015
